Data: publication PMC3398308
Results are given in words; binding and its absence hold for the method and conditions named. For some assays here: In cells and extracts the contact can be indirect. Some binding calls cover weakened binding; strength is not graded here. For some assays here: Tags and fused reporters may be left off the sequences shown.

The chains behind the UniProt entries cited, without tags or fusion partners.
UniProt Q9ESG2: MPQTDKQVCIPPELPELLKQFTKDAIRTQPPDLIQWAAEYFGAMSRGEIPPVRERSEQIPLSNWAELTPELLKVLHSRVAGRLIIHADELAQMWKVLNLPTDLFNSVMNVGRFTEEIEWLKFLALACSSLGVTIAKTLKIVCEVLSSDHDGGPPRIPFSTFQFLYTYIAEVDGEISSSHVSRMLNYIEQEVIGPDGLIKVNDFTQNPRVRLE

T1: AKAP3 full-length open reading frame, Gal4 fusion, pGBKT7-mAKAP3 (mouse) (UniProt O88987)
T1 sequence: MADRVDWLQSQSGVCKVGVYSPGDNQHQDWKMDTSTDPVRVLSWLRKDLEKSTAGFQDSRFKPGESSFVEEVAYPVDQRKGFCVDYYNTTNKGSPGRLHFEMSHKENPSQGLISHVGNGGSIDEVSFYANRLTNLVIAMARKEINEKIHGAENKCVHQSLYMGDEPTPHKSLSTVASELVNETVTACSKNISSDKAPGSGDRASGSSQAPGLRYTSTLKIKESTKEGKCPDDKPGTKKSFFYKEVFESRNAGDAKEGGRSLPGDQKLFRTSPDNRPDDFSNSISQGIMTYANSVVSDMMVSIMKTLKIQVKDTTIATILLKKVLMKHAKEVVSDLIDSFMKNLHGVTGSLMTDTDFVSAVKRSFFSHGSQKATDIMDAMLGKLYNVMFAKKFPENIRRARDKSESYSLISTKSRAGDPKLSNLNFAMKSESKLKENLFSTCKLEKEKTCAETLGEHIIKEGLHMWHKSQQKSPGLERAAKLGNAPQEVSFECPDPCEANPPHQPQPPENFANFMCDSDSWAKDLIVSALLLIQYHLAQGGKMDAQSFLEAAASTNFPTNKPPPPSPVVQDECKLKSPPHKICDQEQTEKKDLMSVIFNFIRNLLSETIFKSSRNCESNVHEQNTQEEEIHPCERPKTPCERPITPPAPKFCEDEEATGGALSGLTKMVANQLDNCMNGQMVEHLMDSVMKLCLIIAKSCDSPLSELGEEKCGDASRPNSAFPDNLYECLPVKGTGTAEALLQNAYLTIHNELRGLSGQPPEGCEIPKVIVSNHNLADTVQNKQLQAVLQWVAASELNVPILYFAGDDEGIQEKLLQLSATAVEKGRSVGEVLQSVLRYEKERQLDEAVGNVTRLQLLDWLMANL

T2: AKAP3 (mouse (endogenous in mouse sperm)) (UniProt O88987)
T2 sequence: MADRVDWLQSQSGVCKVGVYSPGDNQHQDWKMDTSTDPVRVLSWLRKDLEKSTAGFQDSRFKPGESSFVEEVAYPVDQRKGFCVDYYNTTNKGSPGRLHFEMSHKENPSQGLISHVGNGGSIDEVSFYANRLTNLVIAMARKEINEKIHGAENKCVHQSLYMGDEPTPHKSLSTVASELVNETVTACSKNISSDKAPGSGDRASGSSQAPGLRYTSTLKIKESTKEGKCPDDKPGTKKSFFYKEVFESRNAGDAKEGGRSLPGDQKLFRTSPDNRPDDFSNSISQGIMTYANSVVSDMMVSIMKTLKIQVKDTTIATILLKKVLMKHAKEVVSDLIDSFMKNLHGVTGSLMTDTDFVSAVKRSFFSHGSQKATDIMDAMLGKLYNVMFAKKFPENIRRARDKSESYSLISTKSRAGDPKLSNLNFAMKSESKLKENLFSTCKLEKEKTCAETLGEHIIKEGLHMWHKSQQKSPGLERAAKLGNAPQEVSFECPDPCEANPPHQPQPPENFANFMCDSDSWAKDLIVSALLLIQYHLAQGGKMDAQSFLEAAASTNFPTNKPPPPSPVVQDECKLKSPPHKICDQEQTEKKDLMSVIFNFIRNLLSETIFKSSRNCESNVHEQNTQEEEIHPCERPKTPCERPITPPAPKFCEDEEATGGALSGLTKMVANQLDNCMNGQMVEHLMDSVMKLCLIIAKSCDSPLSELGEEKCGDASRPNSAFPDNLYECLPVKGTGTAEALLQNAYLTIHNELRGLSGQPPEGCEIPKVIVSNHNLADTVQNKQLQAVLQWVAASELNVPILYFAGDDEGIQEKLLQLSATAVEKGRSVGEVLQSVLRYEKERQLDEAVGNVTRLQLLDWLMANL


Legend:
[1] = molecular target: ropporin full-length open reading frame, Gal4 fusion, pGBKT7-ropporin (mouse) (UniProt Q9ESG2); experiment: two-hybrid; Matchmaker Gal4 System 3, yeast AH109, pGADT7 and pGBKT7 fusions; growth on medium stringency SD/-His/-Leu/-Trp plates, 30°C, 3-5 days
[2] = molecular target: T1, AKAP3 full-length open reading frame, Gal4 fusion, pGBKT7-mAKAP3 (mouse); experiment: two-hybrid; quantitative alpha-galactosidase assay of culture supernatants of the co-transformed yeast (p-nitrophenyl-D-galactopyranoside, 30°C, 60 min)
[3] = molecular target: ropporin full-length open reading frame, Gal4 fusion, pGBKT7-ropporin (mouse) (UniProt Q9ESG2); experiment: as above
[4] = molecular target: ropporin full-length open reading frame, Gal4 fusion, pGBKT7-ropporin (mouse) (UniProt Q9ESG2); experiment: condition: only on high stringency SD/-Ade/-His/-Leu/-Trp medium; two-hybrid; Matchmaker Gal4 System 3, yeast AH109, pGADT7 and pGBKT7 fusions; growth on high stringency SD/-Ade/-His/-Leu/-Trp plates with X-alpha-Gal, 30°C, 3-5 days
[5] = molecular target: T1, AKAP3 full-length open reading frame, Gal4 fusion, pGBKT7-mAKAP3 (mouse); experiment: two-hybrid; Matchmaker Gal4 System 3, yeast AH109, pGADT7 and pGBKT7 fusions; growth on high stringency SD/-Ade/-His/-Leu/-Trp plates with X-alpha-Gal, 30°C, 3-5 days
[6] = molecular target: T2, AKAP3 (mouse (endogenous in mouse sperm)); experiment: co-IP; method 2: mouse sperm extracted in Celis buffer without DTT, dialysed against PBS, precipitated with anti-AKAP3 polyclonal or anti-AKAP4 monoclonal antibody; 2-D Western blot with anti-CABYR-A or anti-CABYR-B; pre-immune serum or normal mouse IgG as control

binding [1] | binding [2] | binding [3] | binding [4] | binding [5] | binding [6] | Binder
binds weakly | no binding | binds weakly | no binding | no binding | – | truncated CR-A (TCR-A) without the RII-like domain, Gal4 fusion, pGADT7-mTCRA (domain or fragment, UniProt Q9D424 51-453) NSSLDIKDLIKQFHQMKVEKWAEGVTVEKKECIKEPIKPPPVPCKPTHMEKSTDTEEDNVAGPLFSNKTTQFPSVHAEVQSEETSEGARGPSDKPTTPKTDYTPPSSPPPAPVSAEYAYVPADPAQFAAQMLGNVPSTYSEVLMVDVATSTPAVPQDVLSAEFAEEVVLSAPLVCSGETVEVQVVSKTSAQVVVGPVSEAEPPKASSAPLQGEQEPPAHEAPDTQVTSASRISSIYNDVPVNEGVVYVEEIPGYIVIPFTDHDQVACVKEIEQSPPGSPKAVEPKTKISIESLKTVQVEENSQHKSSVHVEAEATVLLSNTALDGQPEVPAEPLDAEGFFKVASENSLHLETEIVIINPDDPGQEESGGNAAPHSSGDPFPPAPGGLTEPEMQPDGEAAPEQV
binds weakly | binds | binds weakly | no binding | binds | – | full length CABYR-A (CR-A) Gal4 fusion, pGADT7-mCRA (protein, UniProt Q9D424 1-453) MISSKPRLVVPYGLKTLLEGVSRAILKTNPTNITQFAAVYFKELIVFREGNSSLDIKDLIKQFHQMKVEKWAEGVTVEKKECIKEPIKPPPVPCKPTHMEKSTDTEEDNVAGPLFSNKTTQFPSVHAEVQSEETSEGARGPSDKPTTPKTDYTPPSSPPPAPVSAEYAYVPADPAQFAAQMLGNVPSTYSEVLMVDVATSTPAVPQDVLSAEFAEEVVLSAPLVCSGETVEVQVVSKTSAQVVVGPVSEAEPPKASSAPLQGEQEPPAHEAPDTQVTSASRISSIYNDVPVNEGVVYVEEIPGYIVIPFTDHDQVACVKEIEQSPPGSPKAVEPKTKISIESLKTVQVEENSQHKSSVHVEAEATVLLSNTALDGQPEVPAEPLDAEGFFKVASENSLHLETEIVIINPDDPGQEESGGNAAPHSSGDPFPPAPGGLTEPEMQPDGEAAPEQV
– | – | – | – | – | binds | 80 kDa CABYR-A only variant (protein, UniProt Q9D424 1-453) MISSKPRLVVPYGLKTLLEGVSRAILKTNPTNITQFAAVYFKELIVFREGNSSLDIKDLIKQFHQMKVEKWAEGVTVEKKECIKEPIKPPPVPCKPTHMEKSTDTEEDNVAGPLFSNKTTQFPSVHAEVQSEETSEGARGPSDKPTTPKTDYTPPSSPPPAPVSAEYAYVPADPAQFAAQMLGNVPSTYSEVLMVDVATSTPAVPQDVLSAEFAEEVVLSAPLVCSGETVEVQVVSKTSAQVVVGPVSEAEPPKASSAPLQGEQEPPAHEAPDTQVTSASRISSIYNDVPVNEGVVYVEEIPGYIVIPFTDHDQVACVKEIEQSPPGSPKAVEPKTKISIESLKTVQVEENSQHKSSVHVEAEATVLLSNTALDGQPEVPAEPLDAEGFFKVASENSLHLETEIVIINPDDPGQEESGGNAAPHSSGDPFPPAPGGLTEPEMQPDGEAAPEQV
